Measurements as given in PubChem BioAssay (NCI).
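Abbreviation: GI50, concentration required for 50% inhibition of growth. TGI denotes the concentration required for complete inhibition of growth.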 Calls of active or inactive are those of the source.

Columns and labels:
Assay in all cases: growth of human tumour cells (NCI), 384-well format
HL-60(TB) leukemia = system: HL-60(TB) leukemia
M14 melanoma = system: M14 melanoma
OVCAR-3 ovarian = system: OVCAR-3 ovarian
SF-268 CNS = system: SF-268 CNS
SK-MEL-5 melanoma = system: SK-MEL-5 melanoma
SNB-75 CNS = system: SNB-75 CNS
UACC-62 melanoma = system: UACC-62 melanoma

Which results are given for `CNC(=O)c1ccccc1Sc1ccc2c(/C=C/c3ccccn3)n[nH]c2c1`?
GI50 (HL-60(TB) leukemia): inactive; TGI (HL-60(TB) leukemia): 10.6 µM; GI50 (M14 melanoma): inactive; TGI (M14 melanoma): 38.9 µM; GI50 (OVCAR-3 ovarian): inactive; TGI (OVCAR-3 ovarian): > 100 µM; GI50 (SF-268 CNS): inactive; TGI (SF-268 CNS): 77.6 µM; GI50 (SK-MEL-5 melanoma): inactive; TGI (SK-MEL-5 melanoma): 28.3 µM; GI50 (SNB-75 CNS): inactive; TGI (SNB-75 CNS): 51.7 µM; GI50 (UACC-62 melanoma): inactive; TGI (UACC-62 melanoma): 23.4 µM
